# Experimental data from the supplement of paper PMC8728848.
# Some of the results follow.
# B1: SSR1 (Sclerotium rolfsii), A0A0M3KL30 (protein)
# chain: TYKITVRVYQTNPDAFFHPVEKTVWKYANGGTWTITDDQHVLTMGGSGTSGTLRFHADNGESFTATFGVHNYKRWCDIVTNLAADETGMVINQQYYSQKNREEARERQLSNYQVKNAKGRNFQIVYTEAEGNDLHANLIIG
# Tests used:
# Assay in all cases: glycan array binding signal (z-score within array); higher = stronger binding
# Settings in all cases: glycan notation: IUPAC condensed, linker removed
# [1] = target: Gal(b1-3)GlcNAc(b1-6)GalNAc
# How it was run: (§1)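 The binding signal is a Z-score computed within each array. Data were drawn from 3228 arrays in the Consortium for Functional Glycomics database, restricted to those with a known protein sequence. Scores were averaged over arrays of the same protein sequence at different concentrations or buffers, and over linkers, and negative values can be taken as non-binding.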
# [2] = target: Gal(b1-3)GlcNAc(b1-6)[Gal(b1-3)]GalNAc
# How it was run: as §1
# Gal(b1-3)GlcNAc6S = target: Gal(b1-3)GlcNAc6S
# How it was run: as §1
# [3] = target: Gal(b1-3)[Fuc(a1-4)]GlcNAc
# How it was run: as §1
# [4] = target: Gal(b1-3)[Fuc(a1-4)]GlcNAc(b1-2)Man
# How it was run: as §1
# [5] = target: Gal(b1-3)[Fuc(a1-4)]GlcNAc(b1-2)Man(a1-3)[Gal(b1-3)[Fuc(a1-4)]GlcNAc(b1-2)Man(a1-6)]Man(b1-4)GlcNAc(b1-4)[Fuc(a1-6)]GlcNAc
# How it was run: as §1
# [6] = target: Gal(b1-3)[Fuc(a1-4)]GlcNAc(b1-3)Gal(b1-3)[Fuc(a1-4)]GlcNAc
# How it was run: as §1
# [7] = target: Gal(b1-3)[Fuc(a1-4)]GlcNAc(b1-3)Gal(b1-4)[Fuc(a1-3)]GlcNAc
# How it was run: as §1
# [8] = target: Gal(b1-3)[Fuc(a1-4)]GlcNAc(b1-6)GalNAc
# How it was run: as §1
# [9] = target: Gal(b1-3)[GlcNAc(b1-6)]GalNAc
# How it was run: as §1
# [10] = target: Gal(b1-3)[Neu5Ac(a2-6)]GalNAc
# How it was run: as §1
# [11] = target: Gal(b1-3)[Neu5Ac(a2-6)]GlcNAc(b1-4)Gal(b1-4)Glc
# How it was run: as §1
# [12] = target: Gal(b1-3)[Neu5Ac(b2-6)]GalNAc
# How it was run: as §1
# Gal(b1-4)Gal = target: Gal(b1-4)Gal
# How it was run: as §1
# [13] = target: Gal(b1-4)GalNAc(a1-3)[Fuc(a1-2)]Gal(b1-4)GlcNAc
# How it was run: as §1
# [14] = target: Gal(b1-4)GalNAc(b1-3)[Fuc(a1-2)]Gal(b1-4)GlcNAc
# How it was run: as §1
# Gal(b1-4)Glc = target: Gal(b1-4)Glc
# How it was run: as §1
# Gal(b1-4)Glc6S = target: Gal(b1-4)Glc6S
# How it was run: as §1
# Gal(b1-4)GlcNAc = target: Gal(b1-4)GlcNAc
# How it was run: as §1
# [15] = target: Gal(b1-4)GlcNAc(a1-6)Gal(b1-4)GlcNAc
# How it was run: as §1
# Gal(b1-4)GlcNAc(b1-2)Man = target: Gal(b1-4)GlcNAc(b1-2)Man
# How it was run: as §1
# [16] = target: Gal(b1-4)GlcNAc(b1-2)Man(a1-3)Man(b1-4)GlcNAc(b1-4)GlcNAc
# How it was run: as §1
# [17] = target: Gal(b1-4)GlcNAc(b1-2)Man(a1-3)[Gal(b1-4)GlcNAc(b1-2)Man(a1-6)]Man(b1-4)GlcNAc(b1-4)GlcNAc
# How it was run: as §1
# [18] = target: Gal(b1-4)GlcNAc(b1-2)Man(a1-3)[Gal(b1-4)GlcNAc(b1-2)Man(a1-6)]Man(b1-4)GlcNAc(b1-4)[Fuc(a1-6)]GlcNAc
# How it was run: as §1
# [19] = target: Gal(b1-4)GlcNAc(b1-2)Man(a1-3)[Gal(b1-4)GlcNAc(b1-2)Man(a1-6)][Gal(b1-4)GlcNAc(b1-4)]Man(b1-4)GlcNAc(b1-4)[Fuc(a1-6)]GlcNAc
# How it was run: as §1
# [20] = target: Gal(b1-4)GlcNAc(b1-2)Man(a1-3)[Gal(b1-4)GlcNAc(b1-2)Man(a1-6)][GlcNAc(b1-4)]Man(b1-4)GlcNAc(b1-4)[Fuc(a1-6)]GlcNAc
# How it was run: as §1
# [21] = target: Gal(b1-4)GlcNAc(b1-2)Man(a1-3)[GlcNAc(b1-2)Man(a1-6)]Man(b1-4)GlcNAc(b1-4)GlcNAc
# How it was run: as §1
# [22] = target: Gal(b1-4)GlcNAc(b1-2)Man(a1-3)[GlcNAc(b1-4)][Gal(b1-4)GlcNAc(b1-2)Man(a1-6)]Man(b1-4)GlcNAc(b1-4)GlcNAc
# How it was run: as §1
# [23] = target: Gal(b1-4)GlcNAc(b1-2)Man(a1-3)[Man(a1-6)]Man(b1-4)GlcNAc(b1-4)GlcNAc
# How it was run: as §1
# [24] = target: Gal(b1-4)GlcNAc(b1-2)Man(a1-6)Man(b1-4)GlcNAc(b1-4)GlcNAc
# How it was run: as §1
# [25] = target: Gal(b1-4)GlcNAc(b1-2)Man(a1-6)[GlcNAc(b1-2)Man(a1-3)]Man(b1-4)GlcNAc(b1-4)GlcNAc
# How it was run: as §1
# [26] = target: Gal(b1-4)GlcNAc(b1-2)Man(a1-6)[Man(a1-3)]Man(b1-4)GlcNAc(b1-4)GlcNAc
# How it was run: as §1
# [27] = target: Gal(b1-4)GlcNAc(b1-2)[Gal(b1-4)GlcNAc(b1-4)]Man(a1-3)[Gal(b1-4)GlcNAc(b1-2)Man(a1-6)]Man(b1-4)GlcNAc(b1-4)GlcNAc
# How it was run: as §1
# [28] = target: Gal(b1-4)GlcNAc(b1-2)[Gal(b1-4)GlcNAc(b1-4)]Man(a1-3)[Gal(b1-4)GlcNAc(b1-2)[Gal(b1-4)GlcNAc(b1-6)]Man(a1-6)]Man(b1-4)GlcNAc(b1-4)GlcNAc
# How it was run: as §1
# [29] = target: Gal(b1-4)GlcNAc(b1-2)[Gal(b1-4)GlcNAc(b1-4)]Man(a1-3)[GlcNAc(b1-4)][Gal(b1-4)GlcNAc(b1-2)Man(a1-6)]Man(b1-4)GlcNAc(b1-4)GlcNAc
# How it was run: as §1
# [30] = target: Gal(b1-4)GlcNAc(b1-2)[Gal(b1-4)GlcNAc(b1-4)]Man(a1-3)[GlcNAc(b1-4)][Gal(b1-4)GlcNAc(b1-2)[Gal(b1-4)GlcNAc(b1-6)]Man(a1-6)]Man(b1-4)GlcNAc(b1-4)GlcNAc
# How it was run: as §1
# [31] = target: Gal(b1-4)GlcNAc(b1-2)[Gal(b1-4)GlcNAc(b1-6)]Man(a1-6)[Gal(b1-4)GlcNAc(b1-2)Man(a1-3)]Man(b1-4)GlcNAc(b1-4)GlcNAc
# How it was run: as §1
# [32] = target: Gal(b1-4)GlcNAc(b1-2)[Gal(b1-4)GlcNAc(b1-6)]Man(a1-6)[Gal(b1-4)GlcNAc(b1-2)Man(a1-3)]Man(b1-4)GlcNAc(b1-4)[Fuc(a1-6)]GlcNAc
# How it was run: as §1
# [33] = target: Gal(b1-4)GlcNAc(b1-2)[Gal(b1-4)GlcNAc(b1-6)]Man(a1-6)[GlcNAc(b1-4)][Gal(b1-4)GlcNAc(b1-2)Man(a1-3)]Man(b1-4)GlcNAc(b1-4)GlcNAc
# How it was run: as §1
# [34] = target: Gal(b1-4)GlcNAc(b1-2)[Gal(b1-4)GlcNAc(b1-6)]Man(a1-6)[GlcNAc(b1-4)][Gal(b1-4)GlcNAc(b1-2)[Gal(b1-4)GlcNAc(b1-4)]Man(a1-3)]Man(b1-4)GlcNAc(b1-4)[Fuc(a1-6)]GlcNAc
# How it was run: as §1
# [35] = target: Gal(b1-4)GlcNAc(b1-3)Gal(b1-3)GalNAc
# How it was run: as §1
# [36] = target: Gal(b1-4)GlcNAc(b1-3)Gal(b1-3)GlcNAc
# How it was run: as §1
# [37] = target: Gal(b1-4)GlcNAc(b1-3)Gal(b1-4)Glc
# How it was run: as §1
# [38] = target: Gal(b1-4)GlcNAc(b1-3)Gal(b1-4)GlcNAc
# How it was run: as §1
# [39] = target: Gal(b1-4)GlcNAc(b1-3)Gal(b1-4)GlcNAc(b1-2)Man(a1-3)[Gal(b1-4)GlcNAc(b1-3)Gal(b1-4)GlcNAc(b1-2)Man(a1-6)]Man(b1-4)GlcNAc(b1-4)GlcNAc
# How it was run: as §1
binder,measurement,setting,value
B1,glycan array binding signal (z-score),[1],-0.327
same,glycan array binding signal (z-score),[2],0.908
same,glycan array binding signal (z-score),Gal(b1-3)GlcNAc6S,-0.321
same,glycan array binding signal (z-score),[3],-0.333
same,glycan array binding signal (z-score),[4],-0.321
same,glycan array binding signal (z-score),[5],-0.309
same,glycan array binding signal (z-score),[6],-0.327
same,glycan array binding signal (z-score),[7],-0.326
same,glycan array binding signal (z-score),[8],-0.343
same,glycan array binding signal (z-score),[9],1.22
same,glycan array binding signal (z-score),[10],0.823
same,glycan array binding signal (z-score),[11],-0.35
same,glycan array binding signal (z-score),[12],0.881
same,glycan array binding signal (z-score),Gal(b1-4)Gal,-0.346
same,glycan array binding signal (z-score),[13],-0.624
same,glycan array binding signal (z-score),[14],-0.347
same,glycan array binding signal (z-score),Gal(b1-4)Glc,-0.337
same,glycan array binding signal (z-score),Gal(b1-4)Glc6S,-0.345
same,glycan array binding signal (z-score),Gal(b1-4)GlcNAc,-0.34
same,glycan array binding signal (z-score),[15],-0.329
same,glycan array binding signal (z-score),Gal(b1-4)GlcNAc(b1-2)Man,-0.331
same,glycan array binding signal (z-score),[16],-0.324
same,glycan array binding signal (z-score),[17],-0.338
same,glycan array binding signal (z-score),[18],-0.293
same,glycan array binding signal (z-score),[19],-0.324
same,glycan array binding signal (z-score),[20],-0.334
same,glycan array binding signal (z-score),[21],1.85
same,glycan array binding signal (z-score),[22],-0.342
same,glycan array binding signal (z-score),[23],-0.323
same,glycan array binding signal (z-score),[24],-0.337
same,glycan array binding signal (z-score),[25],3.01
same,glycan array binding signal (z-score),[26],-0.323
same,glycan array binding signal (z-score),[27],-0.328
same,glycan array binding signal (z-score),[28],-0.332
same,glycan array binding signal (z-score),[29],-0.34
same,glycan array binding signal (z-score),[30],-0.33
same,glycan array binding signal (z-score),[31],-0.34
same,glycan array binding signal (z-score),[32],-0.332
same,glycan array binding signal (z-score),[33],-0.336
same,glycan array binding signal (z-score),[34],-0.344
same,glycan array binding signal (z-score),[35],1.12
same,glycan array binding signal (z-score),[36],-0.338
same,glycan array binding signal (z-score),[37],-0.339
same,glycan array binding signal (z-score),[38],-0.336
same,glycan array binding signal (z-score),[39],-0.269
